Source: the supplement of paper PMC10126150
Sequences with one replicate were seen in a single cluster, so their values are uncertain.

System: ATP
Experiment: switch fluorescence ratio, 500 uM ATP over buffer (Cy3 cluster intensity, sum of 5 cycles each) (fold (ratio)); higher = stronger signal-on switching upon ATP binding; sequences stand for … in TCGTCGGCAGCGTCAGATGTGTATAAGAGACAGTTTTTTTTTTTTTTTTTTTTTTTTT…TC
Conditions: aptamer strand: ATP DNA aptamer (quencher-CACCTGGGGGAGTATTGCGGAGGAAGG + anchor), 100 nM annealed; ATP concentration: 500 uM; one replicate
Method in brief: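 Imaging in selection buffer was followed by imaging after 15 min with 500 uM ATP at 22 °C, for Cy3-labelled switching-strand clusters annealed to 100 nM quencher-labelled ATP aptamer on a modified Illumina MiSeq flow-cell. Five of these buffer/ATP cycles ran, separated by NaOH stripping and re-annealing. The fluorescence ratio per cluster is summed target-cycle over summed buffer-cycle Cy3 intensity, averaged per switch-domain sequence; clusters outside 100-1000 RFU were removed.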
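Note: ATP exposure 15 min at 22 °C before imaging.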

Row | Sequence | switch fluorescence ratio
1 | GTATGGCAGA | 0.987
2 | CGTATAAGCG | 0.899
3 | CCTGTAGTCA | 1.02
4 | TGATTCGACT | 0.994
5 | GTTGCGGTTA | 0.983
6 | CCCCAAACAT | 1.01
7 | TACGGTGACG | 1
8 | CATTGAATGC | 1.08
9 | GGTGGGCGTG | 0.994
10 | ATTTGCGATC | 1.18
11 | TCTAGAAATT | 0.982
12 | TTATTTCGAC | 0.995
13 | TTCTCGCACG | 1.15
14 | ATGCCTAGAG | 0.988
15 | GTGGTCGGTC | 0.986
16 | TGGCTTTGGC | 0.944
17 | GGTACGGAGC | 1.06
18 | AGTAAATGAC | 0.977
19 | GCAACGGGG | 0.981
20 | CTCAAACGT | 1.06
21 | ACCCGAGG | 1.06
22 | AAAAGCACG | 0.994
23 | CCCATTCGT | 1.02

Row | Sequence | switch fluorescence ratio
24 | AAGGAGAAGG | 1.08
25 | TGGGCCGAAC | 0.989
26 | AGAGTATTCG | 1.33
27 | ACCCTGAGTA | 0.985
28 | CAAACCATAC | 1.71
29 | GCATCTAGGG | 0.966
30 | AACGAGAGCT | 1.04
31 | ATCGTCCTGT | 0.982
32 | CTTTACAAGG | 0.971
33 | GTATTTTGTC | 0.992
34 | TGTTACACTG | 1.04
35 | CTTAGAAGGT | 0.97
36 | ACCTTGAACG | 1.16
37 | ATACTAGCAG | 1.01
38 | AAAGGGTCTC | 0.986
39 | AATTTTGTAC | 1.01
40 | AAGTTCGAGT | 0.955
41 | TGGGACTCTA | 1.02
42 | TCACTGAAAC | 1.01
43 | CCTAAGTTT | 0.984
44 | TGATTGTAGA | 1.01
45 | TAACTGATAG | 1.01
46 | CTGCGCGCAT | 1.06

Row | Sequence | switch fluorescence ratio
47 | GCAGGGAGTA | 0.952
48 | TTTTGTCTAC | 1.06
49 | AAATGTCGA | 1.02
50 | TTGCAGCGGT | 1.17
51 | CTCACAGAGG | 1.02
52 | ATAGGCGTGG | 0.987
53 | CTACACTCAA | 1.03
54 | CAGTGGCGGG | 1.01
55 | GCAATCATTG | 1
56 | ACAGCGCGGA | 1.02
57 | ATCGTATAGA | 0.955
58 | ATGAGAATGT | 1.01
59 | TTCACAAGTG | 0.977
60 | TGTTGTCAGC | 1.02
61 | TATGCGCCAG | 0.969
62 | ATCGATGT | 0.986
63 | TACACAATTG | 0.979
64 | CTTATGTAGT | 1.04
65 | AAGCAAGTCG | 1.07
66 | CGATTCCTGG | 1.04
67 | ATGGTCGGAC | 0.962
68 | TTTGATCCTA | 1.05
69 | CATAGGTGTC | 1.04

Row | Sequence | switch fluorescence ratio
70 | ATCAGATCCC | 0.99
71 | TATGCATACG | 1.04
72 | CAGACTGGGT | 1
73 | GGAGAATCAT | 1.01
74 | CCGTACTGCT | 1.03
75 | TCATGGAGAA | 1
76 | GTTAGGCCCC | 1
77 | TTATTCTAAA | 0.994
78 | GGCATGTGGC | 1.03
79 | ATTGGAGTGT | 0.949
80 | TCTGGCCGCA | 1.54
81 | CGAAAAAGGG | 0.994
82 | GTTCAACCAT | 1
83 | CATGTGTCTC | 0.983
84 | CTCGGAAATG | 0.984
85 | ATTACTGCT | 0.944
86 | GAGACGGGAG | 0.979
87 | AAAAACTTCG | 1.05
88 | GCCCCTTAAT | 0.974
89 | TGGATGAGAC | 0.964
90 | ACCACTTTCA | 1.04
91 | CGTAATTAAG | 0.98
92 | AGAAACGTCA | 1.12

Row | Sequence | switch fluorescence ratio
93 | CATAGTCCTG | 1.06
94 | GTAGGCGAAA | 1.01
95 | CCTGACAACT | 1.06
96 | TGAGGCGTAA | 1.07
97 | ACTGAGATTC | 1.09
98 | TGCGCGCCGT | 1.02
99 | CAAAGTTGC | 0.998
100 | GCGTACACGA | 1.02
101 | GCGTTTGTAC | 1.24
102 | CCCCGAGCGT | 1.67
103 | CGAGGAAAAA | 1.02
104 | CGATCGTAT | 0.999
105 | GTTTTAGTTA | 0.99
106 | GTACGTTCGT | 1.04
107 | AATGATGGAG | 0.955
108 | AACGAATAGC | 1.04
109 | TTAGAAAGAC | 1.17
110 | ATCGACTATG | 0.975
111 | CGGGTCTAGG | 0.991
112 | CGAGAACGGA | 1.02
113 | GACCACCGTA | 1.11
114 | AGGGGAACG | 1.02
115 | CCGCTGAATT | 1.03

Row | Sequence | switch fluorescence ratio
116 | AAGGCCTGCC | 1.04
117 | TACTCTAGTA | 0.99
118 | GTAAGGCT | 1.03
119 | GAGCATAACT | 1.42
120 | CGTGCATAAC | 2.53
121 | GCGGGTTAGG | 0.997
122 | CGCCCGCATT | 4.28
123 | TGCACGCCTA | 1.03
124 | GGATATAAAC | 1
125 | AATAATATC | 1.03
126 | CCTGATAAGG | 1
127 | TACCTTGTA | 0.994
128 | CGATCTACTC | 1.15
129 | CGAAAAACAT | 1.01
130 | AGGGTGATAG | 1.03
131 | CACTCTCTAT | 1.05
132 | TCCCGGCCCC | 1.15
133 | CATTACTC | 1.54
134 | ATCTCGGGGT | 0.957
135 | TATTTCCAGA | 0.992
136 | CTCGGTGATT | 1
137 | AACGATTGTG | 0.943
138 | TCTATCGA | 0.958

Row | Sequence | switch fluorescence ratio
139 | TATGGGACG | 0.998
140 | TCCCTTCG | 1.29
141 | TGCTTGGGCT | 1.01
142 | GTTGTGGGA | 1.05
143 | ACATGCGACT | 0.999
144 | AAATCGGGCC | 0.996
145 | ACTTGTTTGT | 0.986
146 | TACACGGGCG | 0.943
147 | GGATCTGAGT | 1.03
148 | ATAGTTGTCT | 0.985
149 | AGACCCAAGG | 1.03
150 | TATGAGCCGA | 1.02
151 | ATAAGGCGTA | 1.06
152 | CCAATGAGAG | 0.954
153 | CTCATCCTGA | 1.07
154 | TAGGATGGG | 0.997
155 | GGAGCCCTAT | 1.04
156 | ATTCGGCCGT | 0.977
157 | CTCGACAGTC | 1.04
158 | GCAGGGAACG | 1.08
